In the supplement of paper PMC7238544:
Counter-ions that a name gives are not always drawn. ± gives the standard deviation of the averaged measurements. Some of the results follow.

Experiments:
Settings in all cases: priming compound concentration 100 µM
hAMSC donor 1 [1] = test: Hoechst total cell count ratio vs vehicle control; higher = more cells (less toxicity)
hAMSC donor 2 [2] = test: as above
hAMSC donor 1 [3] = test: transgenic luciferase activity (RLU/mg protein) fold change vs vehicle control (ratio); higher = more transgene expression
hAMSC donor 2 [4] = test: as above
hAMSC donor 1 [5] = test: transfection efficiency (EGFP+ cells / Hoechst count) fold change vs vehicle control (ratio); hAMSC are human adipose-derived mesenchymal stem cells given an EGFP-luciferase plasmid by lipofection; higher = enhanced transfection
hAMSC donor 2 [6] = test: as above
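Throughout, for Hoechst total cell count ratio vs vehicle control: compound added 30 min before Lipofectamine 3000 lipoplex delivery, triplicate-well means expressed against DMSO vehicle control wells of the same 96-well plate.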
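Throughout, for transfection efficiency (EGFP+ cells / Hoechst count) fold change vs vehicle control: compounds added 30 min before Lipofectamine 3000 lipoplex transfection, triplicate means relative to DMSO vehicle wells on the same plate, luciferase RLU normalized to BCA total protein.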
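Throughout, for transgenic luciferase activity (RLU/mg protein) fold change vs vehicle control: compounds in DMSO added 30 min before Lipofectamine 3000 transfection of pEGFP-Luc in 96-well plates, values are means of triplicate wells over DMSO vehicle wells on the same plate.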

SMILES	Hoechst total cell count ratio (hAMSC donor 1 [1])	Hoechst total cell count ratio (hAMSC donor 2 [2])	transgenic luciferase activity (hAMSC donor 1 [3])	transgenic luciferase activity (hAMSC donor 2 [4])	transfection efficiency (hAMSC donor 1 [5])	transfection efficiency (hAMSC donor 2 [6])
COCc1c(C(C)C)nc(C(C)C)c(/C=C/[C@@H](O)C[C@@H](O)CC(=O)O)c1-c1ccc(F)cc1 [Cerivastatin sodium]	0.521 ± 0.22	0.642 ± 0.085	0.891 ± 0.51	0.714 ± 0.13	3.14 ± 0.94	1.45 ± 0.065
CS(=O)(=O)c1ccc(C2=C(c3ccccc3)C(=O)OC2)cc1 [Rofecoxib]	1.24 ± 0.15	1.23 ± 0.099	0.469 ± 0.1	0.956 ± 0.066	0.997 ± 0.57	1.05 ± 0.033
C#C[C@]1(O)CC[C@H]2[C@@H]3CCC4=Cc5oncc5C[C@]4(C)[C@H]3CC[C@@]21C [Danazol]	1.3 ± 0.14	0.879 ± 0.12	1.18 ± 1.3	0.333 ± 0.085	0.448 ± 0.19	0.809 ± 0.21
CC(N/C(=N\C#N)Nc1ccncc1)C(C)(C)C (centres undefined) [Pinacidil monohydrate]	1.05 ± 0.023	1.3 ± 0.44	1.37 ± 0.098	1.07 ± 0.23	1.14 ± 0.32	0.947 ± 0.12
CNCCC=C1c2ccccc2CCc2ccccc21 [Nortriptyline hydrochloride]	0.181 ± 0.057	0.234 ± 0.12	0.0677 ± 0.016	0.00124 ± 0.00058	0.516 ± 0.35	0.0962 ± 0.1
CC(C)c1nc(CN(C)C(=O)N[C@H](C(=O)N[C@@H](Cc2ccccc2)C[C@H](O)[C@H](Cc2ccccc2)NC(=O)OCc2cncs2)C(C)C)cs1 [Ritonavir]	1.56 ± 0.25	1.27 ± 0.025	0.316 ± 0.15	1.22 ± 0.34	0.679 ± 0.18	0.824 ± 0.18
CC(C)(C)NC(=O)[C@@H]1CN(Cc2cccnc2)CCN1C[C@@H](O)C[C@@H](Cc1ccccc1)C(=O)N[C@H]1c2ccccc2C[C@H]1O [Indinavir sulfate]	1.28 ± 0.19	1.2 ± 0.14	0.4 ± 0.18	0.772 ± 0.19	1.31 ± 0.27	1.16 ± 0.14
OCCN1CCN(CCCN2c3ccccc3Sc3ccc(C(F)(F)F)cc32)CC1 [Fluphenazine dihydrochloride]	0.0753 ± 0.048	0.0733 ± 0.033	0.028 ± 0.021	0.000491 ± 5.8e-05	1.45 ± 1.5	0.0415 ± 0.072
CCCC1O[C@@H]2C[C@H]3[C@@H]4CCC5=CC(=O)C=C[C@]5(C)[C@H]4[C@@H](O)C[C@]3(C)[C@]2(C(=O)CO)O1 (some centres undefined) [Budesonide]	1.4 ± 0.13	1.34 ± 0.091	10.4 ± 4.2	0.625 ± 0.033	1.54 ± 0.26	1.23 ± 0.17
O=C(O)/C=C/c1ccc(Cn2ccnc2)cc1 [Ozagrel hydrochloride]	1.21 ± 0.13	1.18 ± 0.018	0.266 ± 0.24	0.606 ± 0.088	1.17 ± 0.14	0.803 ± 0.1
C[C@@H]1O[C@@H](OC[C@H]2O[C@@H](Oc3c(-c4ccc(O)c(O)c4)oc4cc(O)cc(O)c4c3=O)[C@H](O)[C@@H](O)[C@@H]2O)[C@H](O)[C@H](O)[C@H]1O [Rutin]	1.21 ± 0.14	0.821 ± 0.34	1.19 ± 0.52	0.268 ± 0.052	1.48 ± 0.69	0.5 ± 0.15
CC[C@@H](CO)NCCN[C@@H](CC)CO [Ethambutol]	1.22 ± 0.077	1.28 ± 0.15	0.69 ± 0.36	1.2 ± 0.033	0.987 ± 0.38	0.967 ± 0.24
NC(=O)c1ncn([C@@H]2O[C@H](CO)[C@@H](O)[C@H]2O)n1 [Ribavirin]	1.08 ± 0.06	1.15 ± 0.14	4.24 ± 1.5	2.83 ± 0.79	1.13 ± 0.23	1.57 ± 0.3
C[C@H]1[C@H](OC(=O)CCC(=O)O)O[C@@H]2O[C@@]3(C)CC[C@H]4[C@H](C)CC[C@@H]1[C@@]24OO3 [Artesunate]	1.21 ± 0.11	1.76 ± 0.067	1.19 ± 0.99	0.585 ± 0.15	1.12 ± 0.31	0.551 ± 0.074
CCCNC(=O)NS(=O)(=O)c1ccc(Cl)cc1 [Chlorpropamide]	1.21 ± 0.066	1.39 ± 0.18	0.985 ± 0.33	1.16 ± 0.29	0.907 ± 0.19	1.54 ± 0.29
CC1=C(C(=O)O)N2C(=O)[C@@H](NC(=O)[C@H](N)c3ccccc3)[C@H]2SC1 [Cephalexin hydrate]	1.77 ± 0.067	1.11 ± 0.037	0.897 ± 0.084	0.95 ± 0.24	1.13 ± 0.24	0.639 ± 0.048
NCc1ccc(S(N)(=O)=O)cc1 [Mafenide acetate]	1.11 ± 0.099	1.71 ± 0.045	1.19 ± 0.18	0.696 ± 0.1	1.14 ± 0.35	1.03 ± 0.075
Clc1ccc(COC(Cn2ccnc2)c2ccc(Cl)cc2Cl)c(Cl)c1 (centres undefined) [Miconazole nitrate]	0.237 ± 0.14	0.147 ± 0.042	0.0214 ± 0.032	0.000615 ± 0.00064	2.14 ± 1.2	0.0992 ± 0.17
COc1ccc(C2CNC(=O)C2)cc1OC1CCCC1 (centres undefined) [Rolipram]	1.15 ± 0.23	1.1 ± 0.21	0.827 ± 0.06	0.879 ± 0.31	1.45 ± 0.47	1.02 ± 0.22
CCCOc1ccc(C(=O)OCCN(CC)CC)cc1N [Proxymetacaine]	1.43 ± 0.26	1.08 ± 0.19	0.732 ± 0.12	0.923 ± 0.21	0.984 ± 0.031	0.888 ± 0.11
C[C@]12C=CC(=O)C=C1CC[C@@H]1[C@@H]2[C@@H](O)C[C@@]2(C)[C@H]1CC[C@]2(O)C(=O)COC(=O)CCC(=O)O [Prednisolone sodium succinate]	1.81 ± 0.23	1.36 ± 0.15	4.5 ± 2	0.744 ± 0.25	1.53 ± 0.31	1.54 ± 0.096
COc1cc(N)c(Cl)cc1C(=O)NC1CCN(CCCOc2ccc(F)cc2)CC1OC (centres undefined) [Cisapride hydrate]	1.23 ± 0.049	1.45 ± 0.14	0.949 ± 0.095	0.805 ± 0.069	1.41 ± 0.33	2.87 ± 1
CC(C)(C#N)c1cc(Cn2cncn2)cc(C(C)(C)C#N)c1 [Anastrozole]	1.27 ± 0.16	0.877 ± 0.17	1.18 ± 0.16	0.91 ± 0.15	1.06 ± 0.35	1.07 ± 0.18
CCN(CC)CCOc1ccc(C(=C(Cl)c2ccccc2)c2ccccc2)cc1 [Clomifene citrate]	0.0627 ± 0.034	0.106 ± 0.071	0.00379 ± 0.0021	0.000956 ± 0.00022	0.694 ± 0.5	0
